Source: PMC6893434
Results are given in words; binding and its absence hold for the method and conditions named. Binding seen in cells or lysates may run through a third protein. Some results given as binding are weak or reduced against the parent protein; the word gives no strength.

Sequences of proteins named here, by UniProt entry; tags and fusion partners are left off. A change or cut given only in a name is not applied to a line headed by its entry.
UniProt P40145: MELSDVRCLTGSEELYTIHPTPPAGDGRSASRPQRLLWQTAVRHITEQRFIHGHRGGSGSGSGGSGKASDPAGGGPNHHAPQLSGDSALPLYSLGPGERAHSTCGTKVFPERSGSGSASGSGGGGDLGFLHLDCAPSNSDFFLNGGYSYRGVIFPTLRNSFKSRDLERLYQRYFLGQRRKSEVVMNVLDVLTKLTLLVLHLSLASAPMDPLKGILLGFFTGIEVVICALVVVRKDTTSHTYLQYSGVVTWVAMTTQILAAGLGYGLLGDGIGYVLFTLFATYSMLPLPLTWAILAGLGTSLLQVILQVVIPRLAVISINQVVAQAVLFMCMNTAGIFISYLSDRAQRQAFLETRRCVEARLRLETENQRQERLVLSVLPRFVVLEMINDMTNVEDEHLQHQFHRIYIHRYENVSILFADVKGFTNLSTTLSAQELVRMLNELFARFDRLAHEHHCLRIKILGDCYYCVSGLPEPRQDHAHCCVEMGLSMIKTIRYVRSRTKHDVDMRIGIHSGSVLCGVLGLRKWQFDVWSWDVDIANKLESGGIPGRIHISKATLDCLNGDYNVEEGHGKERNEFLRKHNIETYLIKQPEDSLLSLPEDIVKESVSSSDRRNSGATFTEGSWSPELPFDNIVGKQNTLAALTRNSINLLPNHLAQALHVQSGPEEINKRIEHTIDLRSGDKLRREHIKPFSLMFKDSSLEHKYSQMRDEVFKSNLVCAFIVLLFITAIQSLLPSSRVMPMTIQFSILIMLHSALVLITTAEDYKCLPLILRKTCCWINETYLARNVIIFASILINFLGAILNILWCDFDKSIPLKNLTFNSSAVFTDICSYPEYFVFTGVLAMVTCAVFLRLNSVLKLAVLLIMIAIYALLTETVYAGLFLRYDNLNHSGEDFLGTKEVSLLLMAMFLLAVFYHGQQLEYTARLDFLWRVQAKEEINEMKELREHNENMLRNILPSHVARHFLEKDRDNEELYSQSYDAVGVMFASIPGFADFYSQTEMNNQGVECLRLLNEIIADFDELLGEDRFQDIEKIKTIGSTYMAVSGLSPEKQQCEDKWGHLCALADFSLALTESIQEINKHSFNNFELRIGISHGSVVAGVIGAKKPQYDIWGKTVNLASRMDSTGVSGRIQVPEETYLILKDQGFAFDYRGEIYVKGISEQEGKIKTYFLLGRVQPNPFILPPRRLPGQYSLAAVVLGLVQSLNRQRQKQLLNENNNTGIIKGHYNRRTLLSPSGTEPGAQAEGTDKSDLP
UniProt Q96D31: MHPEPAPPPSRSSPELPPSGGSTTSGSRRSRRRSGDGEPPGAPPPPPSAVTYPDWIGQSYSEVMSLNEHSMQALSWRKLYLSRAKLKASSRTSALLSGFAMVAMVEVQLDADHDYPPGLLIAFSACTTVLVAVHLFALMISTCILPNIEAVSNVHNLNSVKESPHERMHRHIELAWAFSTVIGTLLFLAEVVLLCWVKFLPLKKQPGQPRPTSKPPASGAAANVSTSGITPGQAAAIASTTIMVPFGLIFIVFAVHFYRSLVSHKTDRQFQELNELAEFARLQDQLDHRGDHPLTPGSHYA

Columns and labels:
[1] = target: Ca2+ calmodulin-activated adenylyl cyclase type 8 (human (endogenous in MCF10A, MCF7, MDA-MB-231)) (UniProt P40145); test: co-IP; MDA-MB-231 whole-cell lysates (1 µM TG or vehicle, 1 min) precipitated with anti-AC8 antibody, bound proteins eluted with soft elution buffer and precipitated again with anti-Orai1; membranes reprobed with anti-Orai1 and anti-AC8
[2] = target: Ca2+ calmodulin-activated adenylyl cyclase type 8 (human (endogenous in MCF10A, MCF7, MDA-MB-231)) (UniProt P40145); test: co-IP; MDA-MB-231 cells transfected with YFP-Orai1 or the Orai1 mutants, 1 µM TG or vehicle for 1 min; whole-cell lysates precipitated with anti-AC8 antibody, blot with anti-Orai1
[3] = target: Ca2+ calmodulin-activated adenylyl cyclase type 8 (human (endogenous in MCF10A, MCF7, MDA-MB-231)) (UniProt P40145); test: co-IP; MDA-MB-231 whole-cell lysates (resting or 1 µM TG for 1 min) precipitated with anti-AC8 antibody; immunoprecipitates treated with PNGaseF, blot with anti-Orai1
[4] = target: Orai1 (endogenous, variants not told apart) (human (endogenous in MCF10A, MCF7, MDA-MB-231)) (UniProt Q96D31); test: co-IP; whole-cell lysates (NP-40 buffer, pH 8) of MCF10A, MCF7 and MDA-MB-231 cells precipitated with anti-Orai1 antibody and protein A agarose overnight at 4 °C, blot with anti-AC8; resting cells; MDA-MB-231 also with or without 1 µM TG for 1 min, dimethyl BAPTA loading, 1 mM Ca2+ or Ca2+-free medium

Question: With “Orai1 (endogenous, variants not told apart) (from UniProt Q96D31 1-301)” as the substance, how does the binding [1] read?
Answer: Its binding is “binds”.

Question: How did the binding [2] turn out when YFP-Orai1 (from UniProt Q96D31 1-301) was run?
Answer: Its binding is “binds”.

Question: Orai1β (from UniProt Q96D31 64-301) was tested. Which binding [3] did it give?
Answer: The binding was “no binding”.

Question: With “Ca2+ calmodulin-activated adenylyl cyclase type 8 (from UniProt P40145 1-1251) (enzyme)” as the substance, how does the binding [4] read?
Answer: Its binding is “binds”.

Question: “Flag-Orai1-S27A/S30A (from UniProt Q96D31 1-301)” was tested. Which binding [2] did it give?
Answer: Its binding is “binds”.

Question: Which binding [2] does the source give for “Flag-Orai1-S27D/S30D (from UniProt Q96D31 1-301)” here?
Answer: Its binding is “binds”.

Question: With Orai1α (from UniProt Q96D31 1-301) as the substance, how does the binding [3] read?
Answer: The binding was “binds”.
